In PubChem BioAssay AID1645887 (National Center for Advancing Translational Sciences (NCATS), 2021) one finds activation data, which are given here for 54 compounds.

Molecules are shown by their SMILES. “And” between values parts separate entries of the source, which are not always exact repeats. Identical values can stand only once. Hit rate of the full screen: of about 16,000 compounds, about 40 (0.2%) were called active. Another 1% or so got no clear call; they are omitted. Calls come from the whole dose curve; as a rule, active = well fitted activation curve with a large enough effect; inconclusive = small, poorly fitted or top-dose-only effect, or another doubt; inactive = no such curve, though single readings can be large or run the other way. The list shows a part of the results.
% is set by controls: 0 for no effect and ±100 for the full control effect.

Sequence of UniProt Q8WZA2 (Q8WZA2 whole entry, looked up): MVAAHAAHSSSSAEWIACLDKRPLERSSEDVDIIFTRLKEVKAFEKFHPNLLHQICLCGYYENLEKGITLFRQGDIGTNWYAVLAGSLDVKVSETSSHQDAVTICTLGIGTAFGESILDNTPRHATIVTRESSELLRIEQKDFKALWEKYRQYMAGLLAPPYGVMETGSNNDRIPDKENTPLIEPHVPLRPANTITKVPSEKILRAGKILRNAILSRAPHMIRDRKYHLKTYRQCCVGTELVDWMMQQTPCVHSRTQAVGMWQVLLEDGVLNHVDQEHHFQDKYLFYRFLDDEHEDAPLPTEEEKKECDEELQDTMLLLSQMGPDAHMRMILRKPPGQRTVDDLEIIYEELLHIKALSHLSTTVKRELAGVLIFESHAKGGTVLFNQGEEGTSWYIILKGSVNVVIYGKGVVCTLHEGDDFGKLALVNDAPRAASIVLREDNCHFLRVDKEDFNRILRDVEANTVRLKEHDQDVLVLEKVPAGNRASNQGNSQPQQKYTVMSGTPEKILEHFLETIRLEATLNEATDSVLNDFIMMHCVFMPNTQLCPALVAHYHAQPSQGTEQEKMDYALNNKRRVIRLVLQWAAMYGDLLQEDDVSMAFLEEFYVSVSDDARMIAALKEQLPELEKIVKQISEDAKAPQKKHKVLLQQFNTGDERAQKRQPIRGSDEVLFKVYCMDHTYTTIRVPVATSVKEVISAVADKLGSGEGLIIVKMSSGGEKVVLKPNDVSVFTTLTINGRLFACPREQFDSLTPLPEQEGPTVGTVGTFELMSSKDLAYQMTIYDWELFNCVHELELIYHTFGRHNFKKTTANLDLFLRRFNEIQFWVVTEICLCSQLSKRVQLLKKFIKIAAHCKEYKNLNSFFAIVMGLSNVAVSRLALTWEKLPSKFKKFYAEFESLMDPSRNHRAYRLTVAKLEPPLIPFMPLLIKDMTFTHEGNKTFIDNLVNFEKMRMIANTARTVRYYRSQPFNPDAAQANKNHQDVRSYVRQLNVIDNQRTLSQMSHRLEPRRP

This assay has as its target Rap guanine nucleotide exchange factor 4 (Homo sapiens) (UniProt Q8WZA2). The assay is described as follows: Validation qHTS for agonist of cAMP-regulated guanine nucleotide exchange factor 4 (EPAC2).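 Note: exchange makes BODIPY-GDP fluorescence drop when released from Rap1B; series mostly up to about 150 µM.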 To be noted: EPAC2 Rap1B BODIPY-GDP exchange, fluorescence; activation: active compounds read high. The method in brief:
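Signal normalized against 6.5 mM cAMP as agonist control. Mix of EPAC2 (100 nM), RAP1B-BODIPY-GDP (250 nM) and GDP (50 uM) was read kinetically at 480/540 nm, every 5 min over 30 min, after 5 min room-temperature incubation with compound.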
(In qHTS, concentration-response curves come from the screen itself.)
Regarding `Nc1ncnc2c1[nH]c(=O)n2C1OC(CO)C(O)C1O` (centres undefined), the activation was inactive: -14.5%.

As to `CCCCC(=O)NCCc1c(Cc2ccccc2)[nH]c2ccccc12`, the activation is inactive: -3.41% and inactive: 8.72%.

Regarding `C[C@@]12CCC3c4ccc(O)cc4CCC3C1CCC2O` (some centres undefined), the activation was inactive: -12.6%.

Regarding `NC[C@@H]1O[C@@H](O[C@H]2[C@@H](O)[C@H](O[C@@H]3[C@@H](O)[C@@H](N)C[C@H](N)[C@H]3O[C@H]3O[C@H](CN)[C@@H](O)[C@@H](O)[C@H]3N)O[C@H]2CO)[C@H](N)[C@@H](O)[C@@H]1O`, the activation is inactive: -5.42%.

Consider `CC(=O)Nc1ccccc1-c1nc(CNC(=O)c2ccc(C)cc2)c(C)o1`, for which the activation is inactive: 4.05%.

Consider `CC(NC(=O)C1CC1)c1nnc2n1CCN(Cc1cccc(F)c1F)CC2` (centres undefined), for which the activation was inactive: 5.64%.

With `Cc1ncc2c(c1CNC(=O)c1ccc3c(c1)OCO3)CCN(C(=O)/C=C/c1ccccc1Cl)C2`, the activation is inactive: 5.09%.

With `COc1ccc(-c2cc(=O)c3ccccc3o2)cc1OC`, the activation is inactive: -8.52%.

As for `CC(=O)OCC(=O)[C@H]1CC[C@H]2[C@@H]3CCC4=CC(=O)CC[C@]4(C)[C@H]3CC[C@]12C`, the activation is inactive: -0.862%.

Turning to `c1ccc(-c2onc(-c3ccco3)c2-c2ccc3[nH]ccc3c2)cc1`, the activation is inactive: 4.72%.

Consider `COc1ccc(NC(=O)C2CC23CCN(Cc2cccc4ncccc24)CC3)cc1Cl` (centres undefined), for which the activation is inactive: -19.9%.

`COc1cc(O)ccc1C(C)=O`: the activation is inactive: -5.92%.

On to `O=c1c(-c2cc(F)cc(F)c2)nc2cnc(N3CCOCC3)nc2n1Cc1ccc(F)cc1`, for which the activation is inactive: -8.25%.

In the case of `C#CCn1c(=O)c2c(ncn2C)n(C)c1=O`, the activation is inactive: -2.92% and inactive: -26%.

Take `CCOC(C)OCC`: the activation was inactive: -6.93%.

Turning to `COC(=O)c1cccc(-c2cc(Cl)c3c(c2)CC(CNC(=O)c2cccnc2)O3)c1` (centres undefined), the activation was inactive: -7.16%.

`COc1cccc(-c2cc(NCc3cccs3)ncn2)c1`: the activation was inactive: -11.9%.

In the case of `COc1ncc2nc(-c3ccc(Cl)cc3)c(=O)n(C[C@H]3CCCO3)c2n1`, the activation was inactive: -15.4%.

With `CC(CN(C)C)CN1c2ccccc2Sc2ccccc21` (centres undefined), the activation is inactive: -7.5%.

As for `CC1(C)[C@@H](OC(=O)CCC(=O)O)CC[C@]2(C)[C@H]3C(=O)C=C4[C@@H]5C[C@@](C)(C(=O)O)CC[C@]5(C)CC[C@@]4(C)[C@]3(C)CC[C@@H]12`, the activation is inactive: -8.16%.

For the compound `COCCn1c(=O)c(C)nc2cnc(Oc3ccccc3)nc21`, the activation is inactive: -7.54%.

Regarding `CC(=O)N1CCC2(CC1)CN(C(=O)Nc1cccc(C#N)c1)C2`, the activation is inactive: -4.19%.

For the compound `O=c1c(-c2cc(F)cc(F)c2)nc2cnc(N3CCOCC3)nc2n1C[C@H]1CCCO1`, the activation is inactive: -1.24%.

As to `N#C/C(=C\c1ccc(O)c(O)c1)C(=O)NCc1ccccc1`, the activation is inactive: -21.2% and inactive: -5.58% and inactive: -30.5%.

As for `O=C(/C=C/c1ccccc1)NCCO`, the activation is inactive: -10.9%.

Take `N#CC(=C(\N)Sc1ccccc1N)/C(C#N)=C(/N)Sc1ccccc1N`: the activation is inactive: -1.32%.

Turning to `CN(C)c1ccnc(-c2cccc(NS(C)(=O)=O)c2)n1`, the activation was inactive: -8.46%.

On to `COc1ccc(-n2c(=O)c(-c3cn(C)c4ccccc34)nc3cnc(N4CCNCC4)nc32)cc1`, for which the activation is inactive: -25.8%.

As for `C#C[C@]1(O)CC[C@H]2[C@@H]3CCC4=CC(=O)CC[C@@H]4[C@H]3CC[C@@]21CC`, the activation is inactive: -0.883%.

In the case of `CC(C)CCCC(C)NC(C)C` (centres undefined), the activation was inactive: 0.872%.

With `Cc1cc(C)c(S(=O)(=O)Nc2cccc(C(F)(F)F)c2)c(C)c1`, the activation is inactive: -35.3%.

For the compound `COc1ccc2[nH]cc(CCNc3cc(-c4ccccc4Cl)ncn3)c2c1`, the activation was inactive: -13.1%.

For the compound `CN1C2CCC1CC(OC(=O)C(O)c1ccccc1)C2` (centres undefined), the activation is inactive: 6.43% and inactive: -7.04%.

As for `O=C(c1ccco1)N1CCC2(CC1)CCN(c1ccccc1)CC2`, the activation was inactive: -4.3%.

Consider `CCN(CC)CCOCCOC(=O)C(CC)(CC)c1ccccc1`, for which the activation is inactive: 8.54%.

For the compound `O=c1c(-c2ccc(Cl)cc2)nc2cnc(N3CCNCC3)nc2n1Cc1cccs1`, the activation is inactive: 17.8%.

Consider `C=CCN1c2ccccc2C(=O)CS1(=O)=O`, for which the activation was inactive: -31.1%.

For `CCCCC/C=C\C/C=C\C/C=C\C/C=C\CCCC(=O)O`, the activation was inactive: -54.4% and inactive: -15.4% and inactive: -15.1%.

In the case of `CCCN1CCC(=O)N(CCOc2ccccc2)CC1`, the activation is inactive: -11.7%.

As to `Nc1ccccc1C(=O)CC(N)C(=O)O` (centres undefined), the activation is inactive: -4.02% and inactive: 1.77%.

`CS(=O)(=O)N1CCC[C@@]2(CCN(c3ncccn3)C2)C1`: the activation was inactive: -5.03%.

Turning to `CC(=O)OC1CC2C(C)(C)C(=O)CC[C@]2(C)C2CC[C@]3(C)C(=CC(=O)OC3c3ccoc3)[C@]12C` (some centres undefined), the activation was inactive: -2.4%.

With `COC(=O)Nc1ccc2[nH]cc(CCNC(C)=O)c2c1`, the activation is inactive: -4.95% and inactive: 1.58%.

Regarding `CCC[C@H]1COCCS(=O)(=O)N1Cc1ccc(Br)cc1`, the activation is inactive: -6.88%.

For the compound `CCCOc1ccc(C(=O)OCCN(CC)CC)cc1N`, the activation was inactive: 7.29%.

For `Cc1noc(C)c1C(=O)N1CCC2(CC1)CN(Cc1cc(C(F)(F)F)cc(C(F)(F)F)c1)C2`, the activation was inactive: -16.8%.

`Cn1cccc1C(=O)N1CCC2(CC1)CN(Cc1cc(C(F)(F)F)cc(C(F)(F)F)c1)C2`: the activation is inactive: -30.8%.

`Nc1nc2c(ncn2CCC(CO)CO)c(=O)[nH]1`: the activation is inactive: -18.8%.

For `COc1ccc2cc(CNCc3ccccc3C(F)(F)F)c(N3CCCC(CO)C3)nc2c1` (centres undefined), the activation is inactive: -7.23%.

Turning to `N#Cc1cccc(-c2ccc3ncnc(N4CCNCC4)c3c2)c1`, the activation was inactive: 1.83%.

As to `COC1C(O)C(O)C(O)C(O)C1O` (centres undefined), the activation is inactive: -11.4%.

For the compound `COCCn1c(=O)c(-c2cc(F)cc(F)c2)nc2cnc(N3CCOCC3)nc21`, the activation was inactive: -5.38%.

For `CSc1ccc(CN2CCOc3ccc(CN4CCCCC4CO)cc3C2)cc1` (centres undefined), the activation is inactive: 0.462%.

Regarding `COC(=O)CC1C(C)(C)C(OC(C)=O)C2[C@H](OC(C)=O)[C@]34O[C@]2(O)[C@]1(C)C3CC[C@]1(C)C4=CC(=O)OC1c1ccoc1` (some centres undefined), the activation is inactive: -16.8%.
